One may read the IC50 as the concentration at which inhibition is half-maximal. Lower therefore signals higher potency.

The values that follow come from US10647702B2, “Aryl-substituted imidazoles” (St. Jude Children's Research Hospital, priority 2010, dated 2020).

Where two headings read alike, the source gives them in different places.

For one data set, the target named is T1, hMDMX (Homo sapiens, UniProt O15151).
T1 construct: mouse and human MDMX (amino acids 1-185); made in house; host or cells: Escherichia coli BL21 (DE3)
T1 sequence (O15151 1-185): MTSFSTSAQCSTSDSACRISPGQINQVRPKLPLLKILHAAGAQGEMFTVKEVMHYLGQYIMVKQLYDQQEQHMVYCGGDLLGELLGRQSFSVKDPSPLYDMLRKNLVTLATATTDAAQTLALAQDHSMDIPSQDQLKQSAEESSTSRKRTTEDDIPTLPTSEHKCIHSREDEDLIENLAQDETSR
Briefly: Fluorescence polarization (FP) assay, MDMX-p53 inhibition. The format is binding. To be noted: for IC50: GST-MDMX, Texas Red-labeled p53 peptide.

A short description of data set [1]: Parallel Artificial Membrane Permeability Assay (PAMPA). The format is in vitro ADME. Here is the method:
Parallel Artificial membrane Permeability Assay (PAMPA) was conducted by Biomek FX lab automation workstation (Beckman Coulter, Inc., Fullerton, Calif.) and PAMPA evolution 96 command software (pION Inc., Woburn, Mass.). The detailed method is described as following. 3 μL of 10 μM test compound stock in DMSO was mixed with 597 μL of citrate phosphate buffered saline (isotonic) to make diluted test compound. 150 μL of diluted test compound was transferred to a UV plate (pION Inc., Woburn, Mass.) and the UV spectrum was read as the reference plate. The membrane on pre-loaded PAMPA sandwich (pION Inc., Woburn, Mass.) was painted with 4 μL GIT lipid (pION Inc., Woburn, Mass.). The acceptor chamber was then filled with 200 μL ASB (acceptor solution buffer, pION Inc., Woburn, Mass.), and the donor chamber was filled with 180 μL diluted test compound. The PAMPA sandwich was assembled, placed on the Gut-box and stirred for 30 minutes. Aqueous Boundary Layer was set to 40 μm for stirring. The UV spectrum (250-500 nm) of the donor and the acceptor were read. The permeability coefficient was calculated using PAMPA evolution 96 command software (pION Inc., Woburn, Mass.) based on the AUC of the reference plate, the donor plate and the acceptor plate. All compounds were tested in triplicates.
For orientation: In PAMPA a lipid-coated filter parts donor from acceptor wells.

Data set [2] can be described thus: Simulated gastric fluid (SGF) stability. The format is in vitro ADME. Particulars: SGF pH 1 with pepsin, 37° C., up to 48 hr. Here is the method:
Compound stocks were 10 mM in DMSO. The internal standard was 10 μM warfarin in methanol. 1.4 ml concentrate HCl (37%), 0.4 g NaCl and 0.64 g pepsin were added to 198 ml DI water to make SGF (pH 1). 1.9 ml SGF was added to the columns of 1, 4, 7 and 10 of a 2 ml 96-well deep well plate (pION Inc., MA, #110023); this was the master plate. 1.9 μl compound stock was added to each well with […] and mixed well. Using a multi-channel pipette, 600 μl from the columns of 1, 4, 7 and 10 were taken and added into the rest of the columns (fluids in column 1 added to columns 2 and 3, column 4 into 5 and 6, and so on). From the master plate, 65 μl were taken from each well and added into 8 storage plates (pION Inc., MA, #110323), each for a time point. The storage plates was then incubated at 37° C. and shaken at 60 rpm. Samples were taken at 0 min, 30 min, 1 hr, 2 hr, 4 hr, 8 hr, 24 hr and 48 hr. At each time point, 195 μl internal standard was added to quench the reaction. The plates were then centrifuged at 4000 rpm for 15 min and supernatant was analyzed by UPLC-MS. The compound was detected by SIR and quantitation was based on peak area ratio of test compound vs. the internal standard.

A further data set in a line: Solubility assay (uSOL). To be noted: 18 hours; for uSOL pH 3: pH 3, room temperature; for uSOL pH 7.4: pH 7.4, room temperature. The format is physicochemical. How it is done: Solubility assay was carried out on Biomek FX lab automation workstation (Beckman Coulter, Inc., Fullerton, Calif.) using μSOL Evolution software (pION Inc., Woburn, Mass.). The detailed method is described as following. 10 μL of 10 mM compound stock (in DMSO) was added to 190 μL 1-propanol to make a reference stock plate. 5 μL from this reference stock plate was mixed with 70 μI, 1-propanol and 75 μL citrate phosphate buffered saline (isotonic) to make the reference plate, and the UV spectrum (250 nm-500 nm) of the reference plate was read. 6 μL of 10 mM test compound stock was added to 594 μL buffer in a 96-well storage plate and mixed. The storage plate was sealed and incubated at room temperature for 18 hours. The suspension was then filtered through a 96-well filter plate (pION Inc., Woburn, Mass.). 75 μL filtrate was mixed with 75 μL 1-propanol to make the sample plate, and the UV spectrum of the sample plate was read. Calculation was carried out by μSOL Evolution software based on the AUC (area under curve) of UV spectrum of the sample plate and the reference plate. All compounds were tested in triplicates.

Where [3] appears, read: pH 3, permeability coefficient, read-out: PAMPA pH 3.
[4] abbreviates: pH 7.4, permeability coefficient, read-out: PAMPA pH 7.4.

With `COc1ccc(C2=NC(c3cccc(Cl)c3)C(c3ccc(Cl)cc3)N2C(=O)N2CCNC(=O)C2)c(OC(C)C)c1` (stereo not drawn) [SJ000558295-1], on hMDMX, the “IC50 value against MDMX in FP assay (in words)” value is reported as “uM level” and half-maximal inhibition (IC50) required 9 µM.
As to `COc1ccc(C2=N[C@@H](c3cccc(Cl)c3)[C@@H](c3ccc(Cl)cc3)N2C(=O)N2CCNC(=O)C2)c(OC(C)C)c1` [SJ000558295-1], in data set [1], the “R % pH 3” value is 76% and the “R % pH 7.4” value was 78%. Moreover, in data set [1] (setting [3]), the Papp at 30 min, 0.05 µM came to 222 ×10⁻⁶ cm/s. In data set [1] (setting [4]), the Papp at 30 min, 0.05 µM worked out at 694 ×10⁻⁶ cm/s. Also, the “SGF stability t(½)” value in data set [2] was 30.13 h. In addition, in the data set “Solubility assay (uSOL)”, the “uSOL pH 3” value was found to be 72.7 uM and the “uSOL pH 7.4” value is listed as 37.8 uM.
At hMDMX, `COc1ccc(C2=NC(c3ccc(Cl)cc3)C(c3cccc(Cl)c3)N2C(=O)N2CCNC(=O)C2)c(OC(C)C)c1` (stereo not drawn) [SJ000558296-1] had an IC50 of 15.6 µM.
The compound `COc1cccc(C2N=C(c3ccc(OC)cc3OC(C)C)N(C(=O)N3CCNC(=O)C3)C2c2ccc(Cl)cc2)c1` (stereo not drawn) [SJ000558297-2] came in with a concentration for half-maximal inhibition (IC50) on hMDMX of 39.4 µM.
For `COc1cccc(C2C(c3ccc(Cl)cc3)N=C(c3ccc(OC)cc3OC(C)C)N2C(=O)N2CCNC(=O)C2)c1` (stereo not drawn) [SJ000558298-1], on hMDMX, the midpoint of inhibition, the IC50, lay at 2 µM.
The same measure, in the same setting: the figure for `COc1ccc(C2N=C(c3ccc(OC)cc3OC(C)C)N(C(=O)N3CCNC(=O)C3)C2c2ccc(Cl)cc2)cc1` (stereo not drawn) [SJ000558300-1] is above 40 µM; for `COc1ccc(C2=NC(c3ccc(Cl)cc3)C(c3ccccc3Cl)N2C(=O)N2CCNC(=O)C2)c(OC(C)C)c1` (stereo not drawn) [SJ000558301-1] it is above 40 µM.
On the same count and under the same terms, for `COc1ccc(C2=NC(c3ccccc3Cl)C(c3ccc(Cl)cc3)N2C(=O)N2CCNC(=O)C2)c(OC(C)C)c1` (stereo not drawn) [SJ000558302-1] the value was 9.1 µM.
As to `COc1ccc(C2=NC(c3cccc(C)c3)C(c3ccc(Cl)cc3)N2C(=O)N2CCNC(=O)C2)c(OC(C)C)c1` (stereo not drawn) [SJ000558304-1], in data set [1], the “R % pH 3” value came to 42% and the “R % pH 7.4” value was determined as 79%. For the same compound, the Papp at 30 min, 0.05 µM in data set [1] (setting [3]) was 72.1 ×10⁻⁶ cm/s. The Papp at 30 min, 0.05 µM in data set [1] (setting [4]) came to 867 ×10⁻⁶ cm/s. The “SGF stability t(½)” value in data set [2] is above 48 h. Further, in the data set “Solubility assay (uSOL)”, the “uSOL pH 3” value worked out at 66.7 uM and the “uSOL pH 7.4” value came out at 57.4 uM. Moreover, at hMDMX, the “IC50 value against MDMX in FP assay (in words)” value is “uM level” and the IC50 turned out to be 9 µM.
In the case of `COc1ccc(C2=NC(c3ccc(Cl)cc3)C(c3cccc(F)c3)N2C(=O)N2CCNC(=O)C2)c(OC(C)C)c1` (stereo not drawn) [SJ000558306-1], at hMDMX, the IC50 came to 9.7 µM.
For `COc1ccc(C2=NC(c3ccc(C)cc3)C(c3ccc(Cl)cc3)N2C(=O)N2CCNC(=O)C2)c(OC(C)C)c1` (stereo not drawn) [SJ000560615-1], the IC50 against hMDMX was above 40 µM.
On hMDMX, `COc1ccc(C2=NC(c3ccc(Cl)cc3)C(c3ccc(C)cc3)N2C(=O)N2CCNC(=O)C2)c(OC(C)C)c1` (stereo not drawn) [SJ000560616-1] registered an IC50 of 25 µM.
